Measurements taken from patent US20260297081A1, “COMPOUNDS AND METHODS OF TREATING CANCERS” (Cullgen Inc., priority 2023, published 2026).
At least one read-out could not be matched to a standard name with certainty.

Tests used:
cyclin D1 = assay: HiBiT detection of HiBiT-tagged cyclin D1 protein level in MCF7 cells, 16 hours (Table 8); type: cell-based; conditions: MCF7 cells stably expressing HiBiT tagged target proteins
CyclinD1 (CCND1) = assay: Cyclin D1 (CCND1) percentage degradation in Calu-1 cells (Table 6); type: cell-based; conditions: 16 hours

| SMILES | % Cyclin D1 Relative Level (10 nM) (cyclin D1) | % Cyclin D1 Relative Level (100 nM) (cyclin D1) | CyclinD1 Degradation (40 nM) (CyclinD1 (CCND1)) | CyclinD1 Degradation (200 nM) (CyclinD1 (CCND1)) |
| --- | --- | --- | --- | --- |
| CC(=O)c1c(C)c2cnc(Nc3ccc(N4CCN(CC(=O)NC5CC6(C5)CC(Nc5nc(NC(C)C)ccc5C(=O)Nc5cc(C)n(C)n5)C6)CC4)cn3)nc2n(C2CCCC2)c1=O (stereo not drawn) [CPD-253, 2-((6-(2-(4-(6-((6-acetyl-8-cyclopentyl-5-methyl-7-oxo-7,8-dihydropyrido[2,3-d]pyrimidin-2-yl)amino)pyridin-3-yl)piperazin-1-yl)acetamido)spiro[3.3]heptan-2-yl)amino)-N-(1,5-dimethyl-1H-pyrazol-3-yl)-6-(isopropylamino)nicotinamide] | A (Relative protein level ≤55%) | A (Relative protein level ≤55%) | B (50%< degradation activity <80%) | A (degradation activity >80%) |
| CC(=O)c1c(C)c2cnc(Nc3ccc(N4CCN(CC(=O)NCC5CC(Nc6nc(NC(C)C)ccc6C(=O)Nc6cc(C)on6)C5)CC4)cn3)nc2n(C2CCCC2)c1=O (stereo not drawn) [CPD-282, 2-((3-((2-(4-(6-((6-acetyl-8-cyclopentyl-5-methyl-7-oxo-7,8-dihydropyrido[2,3-d]pyrimidin-2-yl)amino)pyridin-3-yl)piperazin-1-yl)acetamido)methyl)cyclobutyl)amino)-6-(isopropylamino)-N-(5-methylisoxazol-3-yl)nicotinamide] | A (Relative protein level ≤55%) | A (Relative protein level ≤55%) | B (50%< degradation activity <80%) | A (degradation activity >80%) |
| CNc1ccc(C(=O)Nc2ccc(N(C)C)nn2)c(NC2CCN(C(=O)CN3CCN(Cc4ccc(Nc5ncc6c(C)c(C(C)=O)c(=O)n(C7CCCC7)c6n5)nc4)CC3)CC2)n1 [CPD-300, 2-((1-(2-(4-((6-((6-acetyl-8-cyclopentyl-5-methyl-7-oxo-7,8-dihydropyrido[2,3-d]pyrimidin-2-yl)amino)pyridin-3-yl)methyl)piperazin-1-yl)acetyl)piperidin-4-yl)amino)-N-(6-(dimethylamino)pyridazin-3-yl)-6-(methylamino)nicotinamide] | B (55%< Relative protein level ≤85%) | B (55%< Relative protein level ≤85%) | C (30%< degradation activity <50%) | B (50%< degradation activity <80%) |
| CC(=O)c1c(C)c2cnc(Nc3ccc(N4CCN(CCC(=O)N5CCC(Nc6nc(NC(C)C)ccc6C(=O)Nc6ccc(N(C)C)nn6)CC5)CC4)cn3)nc2n(C2CCCC2)c1=O [CPD-301, 2-((1-(3-(4-(6-((6-acetyl-8-cyclopentyl-5-methyl-7-oxo-7,8-dihydropyrido[2,3-d]pyrimidin-2-yl)amino)pyridin-3-yl)piperazin-1-yl)propanoyl)piperidin-4-yl)amino)-N-(6-(dimethylamino)pyridazin-3-yl)-6-(isopropylamino)nicotinamide] | A (Relative protein level ≤55%) | A (Relative protein level ≤55%) | A (degradation activity >80%) | A (degradation activity >80%) |
| CC(=O)c1c(C)c2cnc(Nc3ccc(N4CCN(CCC(=O)N5CC6(CC(Nc7nc(NC(C)C)ccc7C(=O)Nc7cc(C)n(C)n7)C6)C5)CC4)cn3)nc2n(C2CCCC2)c1=O [CPD-302, 2-((2-(3-(4-(6-((6-acetyl-8-cyclopentyl-5-methyl-7-oxo-7,8-dihydropyrido[2,3-d]pyrimidin-2-yl)amino)pyridin-3-yl)piperazin-1-yl)propanoyl)-2-azaspiro[3.3]heptan-6-yl)amino)-N-(1,5-dimethyl-1H-pyrazol-3-yl)-6-(isopropylamino)nicotinamide] | B (55%< Relative protein level ≤85%) | B (55%< Relative protein level ≤85%) | A (degradation activity >80%) | A (degradation activity >80%) |
| CC(=O)c1c(C)c2cnc(Nc3ccc(N4CCN(CCC(=O)N5CC6(CC(Nc7nc(NC(C)C)ccc7C(=O)Nc7ccc(N(C)C)nn7)C6)C5)CC4)cn3)nc2n(C2CCCC2)c1=O [CPD-305, 2-((2-(3-(4-(6-((6-acetyl-8-cyclopentyl-5-methyl-7-oxo-7,8-dihydropyrido[2,3-d]pyrimidin-2-yl)amino)pyridin-3-yl)piperazin-1-yl)propanoyl)-2-azaspiro[3.3]heptan-6-yl)amino)-N-(6-(dimethylamino)pyridazin-3-yl)-6-(isopropylamino)nicotinamide] | A (Relative protein level ≤55%) | A (Relative protein level ≤55%) | A (degradation activity >80%) | A (degradation activity >80%) |
| CC(=O)c1c(C)c2cnc(Nc3ccc(N4CCN(CC5(C(=O)N6CC7(CC(Nc8nc(NC(C)C)ccc8C(=O)Nc8ccc(N(C)C)nn8)C7)C6)CC5)CC4)cn3)nc2n(C2CCCC2)c1=O [CPD-306, 2-((2-(1-((4-(6-((6-acetyl-8-cyclopentyl-5-methyl-7-oxo-7,8-dihydropyrido[2,3-d]pyrimidin-2-yl)amino)pyridin-3-yl)piperazin-1-yl)methyl)cyclopropane-1-carbonyl)-2-azaspiro[3.3]heptan-6-yl)amino)-N-(6-(dimethylamino)pyridazin-3-yl)-6-(isopropylamino)nicotinamide] | A (Relative protein level ≤55%) | B (55%< Relative protein level ≤85%) | A (degradation activity >80%) | B (50%< degradation activity <80%) |
| CC(=O)c1c(C)c2cnc(Nc3ccc(N4CCN(C(C)CC(=O)N5CC6(CC(Nc7nc(NC(C)C)ccc7C(=O)Nc7cn(C)c(C8CC8)n7)C6)C5)CC4)cn3)nc2n(C2CCCC2)c1=O (stereo not drawn) [CPD-338, 2-((2-(3-(4-(6-((6-acetyl-8-cyclopentyl-5-methyl-7-oxo-7,8-dihydropyrido[2,3-d]pyrimidin-2-yl)amino)pyridin-3-yl)piperazin-1-yl)butanoyl)-2-azaspiro[3.3]heptan-6-yl)amino)-N-(2-cyclopropyl-1-methyl-1H-imidazol-4-yl)-6-(isopropylamino)nicotinamide] | A (Relative protein level ≤55%) | A (Relative protein level ≤55%) | B (50%< degradation activity <80%) | B (50%< degradation activity <80%) |
| CC(=O)c1c(C)c2cnc(Nc3ccc(CN4CCN(CC(=O)N5CCC(Nc6nc(NC(C)C)ccc6C(=O)Nc6ccc(N(C)C)nn6)CC5)CC4)cn3)nc2n(C2CCCC2)c1=O [CPD-358, 2-((1-(2-(4-((6-((6-acetyl-8-cyclopentyl-5-methyl-7-oxo-7,8-dihydropyrido[2,3-d]pyrimidin-2-yl)amino)pyridin-3-yl)methyl)piperazin-1-yl)acetyl)piperidin-4-yl)amino)-N-(6-(dimethylamino)pyridazin-3-yl)-6-(isopropylamino)nicotinamide] | A (Relative protein level ≤55%) | A (Relative protein level ≤55%) | B (50%< degradation activity <80%) | B (50%< degradation activity <80%) |
| CC(=O)c1c(C)c2cnc(Nc3ccc(N4CCC(N(C)CC(=O)N5CCC(Nc6nc(NC(C)C)ccc6C(=O)Nc6ccc(N(C)C)nn6)CC5)CC4)cn3)nc2n(C2CCCC2)c1=O [CPD-360, 2-((1-(N-(1-(6-((6-acetyl-8-cyclopentyl-5-methyl-7-oxo-7,8-dihydropyrido[2,3-d]pyrimidin-2-yl)amino)pyridin-3-yl)piperidin-4-yl)-N-methylglycyl)piperidin-4-yl)amino)-N-(6-(dimethylamino)pyridazin-3-yl)-6-(isopropylamino)nicotinamide] | A (Relative protein level ≤55%) | A (Relative protein level ≤55%) | B (50%< degradation activity <80%) | B (50%< degradation activity <80%) |
| CC(=O)c1c(C)c2cnc(Nc3ccc(N4CCN(C(CC(=O)N5CC6(CC(Nc7nc(NC(C)C)ccc7C(=O)Nc7ccc(N(C)C)nn7)C6)C5)C(F)(F)F)CC4)cn3)nc2n(C2CCCC2)c1=O (stereo not drawn) [CPD-367, 2-((2-(3-(4-(6-((6-acetyl-8-cyclopentyl-5-methyl-7-oxo-7,8-dihydropyrido[2,3-d]pyrimidin-2-yl)amino)pyridin-3-yl)piperazin-1-yl)-4,4,4-trifluorobutanoyl)-2-azaspiro[3.3]heptan-6-yl)amino)-N-(6-(dimethylamino)pyridazin-3-yl)-6-(isopropylamino)nicotinamide] | A (Relative protein level ≤55%) | A (Relative protein level ≤55%) | B (50%< degradation activity <80%) | B (50%< degradation activity <80%) |
| CNc1ccc(C(=O)Nc2ccc(N(C)C)nn2)c(NCCCCCCCC(=O)NC2CCC3(CC2)CC(Nc2ncc4ccc(=O)n(C5CCCC5)c4n2)C3)n1 (stereo not drawn) [CPD-678, 2-((8-((2-((8-cyclopentyl-7-oxo-7,8-dihydropyrido[2,3-d]pyrimidin-2-yl)amino)spiro[3.5]nonan-7-yl)amino)-8-oxooctyl)amino)-N-(6-(dimethylamino)pyridazin-3-yl)-6-(methylamino)nicotinamide] | C (Relative protein level >85%) | C (Relative protein level >85%) | – | – |
| CNc1ccc(C(=O)Nc2ccc(N(C)C)nn2)c(NCCOCCC(=O)NC2CCC3(CC2)CC(Nc2ncc4ccc(=O)n(C5CCCC5)c4n2)C3)n1 (stereo not drawn) [CPD-679, 2-((2-(3-((2-((8-cyclopentyl-7-oxo-7,8-dihydropyrido[2,3-d]pyrimidin-2-yl)amino)spiro[3.5]nonan-7-yl)amino)-3-oxopropoxy)ethyl)amino)-N-(6-(dimethylamino)pyridazin-3-yl)-6-(methylamino)nicotinamide] | C (Relative protein level >85%) | C (Relative protein level >85%) | – | – |
